Data as given in article PMC4336329 (PLoS ONE, 2015).
The whole screen tested about 310,000 compounds, of which about 14,000 (4.5%) showed an effect of 50% or more. The effect is printed as a negative number. Some of the results follow.

target: human ether-à-go-go-related gene (hERG) potassium channel (human, UniProt Q12809); assay: primary screen, population patch clamp on CHO cells stably expressing hERG
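Also: peak tail current of the secondary pulse compared with the same well before compound.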

human ether-à-go-go-related gene (hERG) potassium channel, sequence (Q12809 whole entry, looked up): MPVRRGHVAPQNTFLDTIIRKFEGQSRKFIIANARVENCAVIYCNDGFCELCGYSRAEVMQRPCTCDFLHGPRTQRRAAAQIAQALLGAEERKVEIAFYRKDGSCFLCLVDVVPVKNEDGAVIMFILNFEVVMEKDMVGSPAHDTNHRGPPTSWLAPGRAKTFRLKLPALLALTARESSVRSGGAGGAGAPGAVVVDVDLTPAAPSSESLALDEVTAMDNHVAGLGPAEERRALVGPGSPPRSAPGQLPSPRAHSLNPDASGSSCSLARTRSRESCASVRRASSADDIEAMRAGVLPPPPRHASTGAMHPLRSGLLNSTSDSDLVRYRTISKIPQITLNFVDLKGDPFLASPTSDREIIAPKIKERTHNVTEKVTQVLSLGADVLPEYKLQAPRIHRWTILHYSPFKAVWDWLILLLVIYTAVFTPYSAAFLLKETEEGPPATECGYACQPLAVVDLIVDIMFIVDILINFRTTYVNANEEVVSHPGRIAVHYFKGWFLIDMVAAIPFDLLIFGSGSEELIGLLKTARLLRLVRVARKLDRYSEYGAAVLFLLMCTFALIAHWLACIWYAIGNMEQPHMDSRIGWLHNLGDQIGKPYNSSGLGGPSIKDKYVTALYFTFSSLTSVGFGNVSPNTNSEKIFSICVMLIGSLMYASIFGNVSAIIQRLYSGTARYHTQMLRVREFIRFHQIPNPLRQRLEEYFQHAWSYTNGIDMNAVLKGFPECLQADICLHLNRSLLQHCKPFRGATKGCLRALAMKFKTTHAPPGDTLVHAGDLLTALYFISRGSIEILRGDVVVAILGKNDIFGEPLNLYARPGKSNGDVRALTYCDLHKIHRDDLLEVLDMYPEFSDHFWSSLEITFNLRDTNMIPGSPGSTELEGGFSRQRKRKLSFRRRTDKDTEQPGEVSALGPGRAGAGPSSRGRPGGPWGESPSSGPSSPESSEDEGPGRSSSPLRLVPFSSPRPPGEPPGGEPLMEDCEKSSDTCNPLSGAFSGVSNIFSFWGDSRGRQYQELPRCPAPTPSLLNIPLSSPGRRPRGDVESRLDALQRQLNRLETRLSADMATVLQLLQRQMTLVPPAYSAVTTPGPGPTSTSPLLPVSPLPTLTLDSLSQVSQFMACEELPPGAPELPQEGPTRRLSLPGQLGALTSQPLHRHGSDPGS

Row | Compound | hERG current change (%, negative = inhibition) at 10uM [%]
1 | O=C(NCCN1C(=O)S/C(=C\c2cccnc2)C1=O)c1cccc(OC(F)F)c1 | -48.7
2 | CSc1nc(-c2ccco2)nn1C(=O)c1ccccc1 | 22.6
3 | COc1ccc(CN2CCN(C(=O)c3ccco3)CC2)cc1OC.O=C(O)C(=O)O | 16.8
4 | COc1ccccc1NS(=O)(=O)c1cccc(C(=O)NCC2(N(C)C)CCCCC2)c1 | -22.2
5 | CN1CCN(C(=O)CCN2C(=O)/C(=C/c3cccc(Br)c3)SC2=S)CC1 | 11.4
6 | Cc1cc(C)n2nc(SCC(N)=O)nc2n1 | 16.2
7 | COc1ccc(CN2C(=O)c3ccc(C(=O)O)cc3C2=O)cc1 | 11.7
8 | CNC(=O)[C@@]1(Cc2ccccc2)C=C[C@@H](C)N1C(=O)OC | 4.08
9 | O=C(NCc1ccccc1)C(c1ccccc1)N(Cc1ccc2c(c1)OCO2)C(=O)Cc1cccs1 (stereo not drawn) | 3.28
10 | O=C(CCN1C(=O)c2ccccc2C1=O)Nn1cnnc1 | -0.368
11 | C=CCN1C(=O)CN=C1Nc1cc(C)ccc1C.Cl | -2.72
12 | CCOc1ccc(CCNC(=O)c2ccc(N3CCCC3=O)cc2)cc1OCC | 11
13 | Cc1cc[n+](CC(=O)Nc2cccc(C)c2)cc1.[Cl-] | 6.68
14 | COc1ccc(N2CCN(C(=O)c3ccc(Oc4ccc(C(F)(F)F)cn4)cc3)CC2)cc1 | -19.3
15 | CCOC(=O)c1cccc(NC(=O)c2ccc(N(C)C)cc2)c1 | -23.5
16 | CCCCC1C2=C(CC(C)(C)CC2=O)OC2=C1C(=O)CC(C)(C)C2 | -9.48
17 | COc1ccc(CCNC(=O)C23CN(Cc4ccccc4)CC2C(c2cccc([N+](=O)[O-])c2)=NO3)cc1 (stereo not drawn) | -7.39
18 | CC(=O)N1CCCN(C(=O)c2ccc3nc(Cc4cccc(Cl)c4)oc3c2)CC1 | -6.76
19 | CSCCC(NC(=O)c1cc(CC(C)C)oc1C)C(=O)O (stereo not drawn) | 11.4
20 | COc1cc2ncnc(NCc3cccc(Cl)c3)c2cc1OC | -63.9
21 | COc1cccc(CN(C)C(=O)c2cc(S(=O)(=O)N3CCN(c4ccccc4)CC3)ccc2Cl)c1 | -6.89
22 | COc1ccc(/C=N/NC(=O)c2cccc([N+](=O)[O-])c2)cc1OC(=O)c1ccc(C)cc1 | 2.76

Row | Compound | hERG current change (%, negative = inhibition) at 10uM [%]
23 | CCOc1ccc(/C(O)=C2/C(=O)C(=O)N(c3ccccn3)C2c2ccc(Cl)cc2)c(C)c1 (stereo not drawn) | 15.4
24 | CC(C)CN1C(=O)c2ccc(NC(=O)c3ccco3)cc2C1=O | 16.8
25 | COC(=O)NCCOc1nc(N(C)C)nc(N(C)C)n1 | 20.9
26 | COc1cc(OC)cc(C2C(C#N)=C(N)Oc3n[nH]c(-c4cccnc4)c32)c1 (stereo not drawn) | 11.9
27 | CCOC(=O)c1[nH]c2ccc(OC)cc2c1NC(=O)CN1CCSCC1 | -14.5
28 | CC(=O)/C(=C/c1ccccc1)C(=O)Nc1ccccc1C | 13.5
29 | CC1CCN(C(=O)CNC(=O)c2ccc(Cl)cc2Cl)CC1 | -11.8
30 | CCOc1ccc(S(=O)(=O)N2CCC(C(=O)NCc3ccncc3)CC2)cc1C | -5.56
31 | O=C(N/N=C/c1ccccc1O)c1cccc(C(F)(F)F)c1 | -6.92
32 | Cc1[nH]c2ccccc2c1C(=O)CN1CC(C)CC(C)C1 (stereo not drawn) | 0.738
33 | CCOC(=O)C(O)(C1C(=O)CC(C)(C)CC1=O)C(F)(F)F (stereo not drawn) | 19.8
34 | CCOc1ccc(N2C(=O)Nc3ccccc3C2(O)C(=O)NCc2ccc(F)cc2)cc1 (stereo not drawn) | 10.7
35 | COc1ccc(Cc2nnc(SCC(=O)c3ccc4c(c3)OCO4)o2)cc1 | -0.299
36 | Cc1nc(N2CCCCC2)c(C#N)c(C)c1[N+](=O)[O-] | 15.3
37 | Cc1cc(=O)oc2cc(OCCCN3C(=O)c4ccccc4C3=O)ccc12 | 10.4
38 | Cc1cc(C)n(-c2ccc(C(=O)Nc3cccc(S(=O)(=O)N4CCCC4)c3)cc2)n1.Cl | 23.8
39 | CCCCCCCCC(=O)NCCOc1ccccc1 | -1.7
40 | Cc1nn(-c2ccccc2)c2sc(C(=O)NCCN3CCOCC3)cc12 | -16.7
41 | Cc1ccc(/C(O)=C2\C(=O)C(=O)N(c3cc(C)on3)C2c2cccc(Cl)c2)cc1 (stereo not drawn) | 24.4
42 | CC(C)=CCOc1c2occc2cc2ccc(=O)oc12 | -17.9
43 | CNc1cc(N2CCN(S(=O)(=O)N(C)C)CC2)ccc1[N+](=O)[O-] | 15.7
44 | Cn1ncc(N=Cc2ccc([N+](=O)[O-])cc2)c1C(=O)Nc1ccccc1 | 19.3

Row | Compound | hERG current change (%, negative = inhibition) at 10uM [%]
45 | Cc1cc(C(=O)Cn2nc(C(=O)O)c3ccccc3c2=O)c(C)n1-c1ccc(OC(F)F)cc1 | 22.7
46 | O=C(COC(=O)/C=C/c1ccccc1[N+](=O)[O-])NC1CCS(=O)(=O)C1 (stereo not drawn) | 26.4
47 | COc1ccc(OC)c(-n2nnnc2SCC(=O)NCc2ccc3c(c2)OCO3)c1 | -36
48 | COc1cccc(-c2cc(C(=O)Nc3ccc([N+](=O)[O-])cn3)c3ccccc3n2)c1 | -42.9
49 | COCCSc1nnc(NC(=O)CS(=O)(=O)c2ccccc2)s1 | 18.4
50 | O=C(Cn1cc(S(=O)(=O)Cc2ccccc2)c2ccccc21)N1CCOCC1 | 9.85
51 | CC1CCN(CCCCOc2cccc(Br)c2)CC1.O=C(O)C(=O)O | -69
52 | COc1cc(OC)c(NC2=CC(=O)C(=O)c3ccccc32)cc1Cl | 20.6
53 | CC(NC(=O)CNC(=O)c1sc2ccccc2c1Cl)c1cccnc1 (stereo not drawn) | -16.6
54 | COc1ccc(-n2nc(C(=O)Nc3ccc(OC)c(OC)c3)c3c4ccccc4n(C)c3c2=O)cc1 | 7.41
55 | O=C(c1c(F)c(F)c(F)c(F)c1F)N1CCc2ccccc21 | 15.6
56 | Cc1cccc(-c2cc3c(N=O)c4ccccc4c-3n[nH]2)c1 | 18.7
57 | CC1CCCC(C)N1C(=O)Nc1cccc(Cl)c1 (stereo not drawn) | 5.65
58 | O=C(O)/C=C/C(=O)Nc1ccc(S(=O)(=O)N2CCCC2)cc1 | 7.59
59 | NC(=O)C(F)(F)C12OC3C4C5CC(C6C5C3C61)C42 (stereo not drawn) | 15.1
60 | Cc1cc(NC(=O)CSc2nc(C)c(C)c(=O)[nH]2)no1 | 9.12
61 | O=C(NCc1cccs1)C1CC(c2ccc(F)cc2)=NO1 (stereo not drawn) | 0.154
62 | COC(=O)C1CCCN1S(=O)(=O)c1ccc2ccccc2c1 (stereo not drawn) | -14
63 | CCOC(=O)[C@@H]1[C@H]2COc3ccc(Br)cc3[C@H]2N2C(=O)N(c3ccc(F)cc3)C(=O)[C@]12C | 18.8
64 | CCCS(=O)(=O)N1CCN(Cc2ccco2)CC1.O=C(O)C(=O)O | 10.6
65 | CN1c2ccccc2-c2nc3ccccc3n2C1c1ccccn1 (stereo not drawn) | -8.3
66 | CC(C)(C)c1ccc(C(=O)Cn2cnnc2C#N)cc1 | 3.7

Row | Compound | hERG current change (%, negative = inhibition) at 10uM [%]
67 | CC(C)(C)C(=O)OCCNc1nc(-c2ccccc2)nc2ccccc12 | 3.23
68 | CCOc1cc(/C=N/NC(=O)c2nnn(-c3nonc3N)c2C)ccc1OCc1cccc(F)c1 | 23.1
69 | CC(NC(=O)CNC(=O)c1ccco1)c1ccccc1 (stereo not drawn) | 6
70 | Cc1ccc(SCCNC(=O)/C=C/c2ccc(Cl)cc2)cc1 | -0.0121
71 | CCCn1c(SCC(=O)NC2CCCCC2)nnc1C1CC1 | 10.8
72 | Clc1ccc(-c2cn3cccnc3n2)cc1 | 15.8
73 | Cc1nn(C(=O)CN2C(=O)c3ccccc3C2=O)c(C)c1Br | 5.28
74 | CC(C)(C)CC(=O)N1CCN(Cc2ccc3c(c2)OCO3)CC1 | 8.27
75 | NC(=O)Nc1ccc(C(=O)OCC(=O)Nc2ccc([N+](=O)[O-])cc2C(F)(F)F)cc1 | -13.2
76 | Nc1nnc(-c2ccc(Cl)cc2)o1 | 5.01
77 | CCOc1ccccc1N(CC(=O)N1CCc2ccccc2C1)S(C)(=O)=O | 13.3
78 | O=c1oc(-c2cccc(S(=O)(=O)N3CCOCC3)c2)nc2ccccc12 | 11.5
79 | Cc1ccc(NC(=O)N2CCN(C(=O)c3ccco3)CC2)cc1Cl | -2.38
80 | COc1ccccc1NC(NC(=O)c1ccco1)C(=O)c1ccccc1 (stereo not drawn) | -17.8
81 | O=C(CSC1c2ccccc2-c2ccccc21)N/N=C/c1ccc(C(=O)O)cc1 | 14.3
82 | CCOC(=O)c1ccc2c(c1)nc(C)n2CC | 9.95
83 | CSCc1c(C(=O)NC2CCCc3ccccc32)oc2ccccc12 (stereo not drawn) | 6.97
84 | Cc1ccc2c(c1)nnn2C1CCN(S(=O)(=O)c2ccc(C(=O)N3CC(C)CC(C)C3)cc2)CC1 (stereo not drawn) | -8.03
85 | COC(=O)C1=C(c2cccc(OCc3ccccc3)c2)C[C@@H]2CC[C@H]1N2C(=O)NCCOc1ccccc1 | 9.99
86 | Cc1cc(C(=O)N2CCCC(Nc3ccc(F)cc3)C2)c(C)o1 (stereo not drawn) | -2.86
87 | CC1CC(=O)N(CC(=O)Nc2ccc(Br)cc2)c2ccccc2S1(=O)=O (stereo not drawn) | -11.2
